Here are results for 20 molecules from PMC9911399, “Two distinct binding modes provide the RNA-binding protein RbFox with extraordinary sequence specificity”.

First the molecules themselves.
T1: RBFOX1 RRM RbFoxmut (Fox-RRM*) (Homo sapiens, UniProt Q9NWB1 109-208, R118D;E147R;N151S;E152T)
T1 sequence: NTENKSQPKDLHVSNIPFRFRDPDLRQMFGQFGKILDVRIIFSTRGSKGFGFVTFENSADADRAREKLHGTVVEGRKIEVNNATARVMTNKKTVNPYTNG

B1: UAGCCUU (DNA:RNA)
RNA: GGGAGACCGGAAUUCAGAUUGUCCUAGCCUUUUAAAUCCCGUCGUAGCCACCA
DNA 1: CAATCTGAATTCCGGTCTCCC
DNA 2: TGGTGGCTACGACGGGATT
B2: AAGCAGU (DNA:RNA)
RNA: B1 RNA with U25A, C29A, U30G
DNA 1: CAATCTGAATTCCGGTCTCCC
DNA 2: TGGTGGCTACGACGGGATT
B3: GCGGGCU (DNA:RNA)
RNA: B1 RNA with U25G, A26C, C28G, C29G, U30C
DNA 1: CAATCTGAATTCCGGTCTCCC
DNA 2: TGGTGGCTACGACGGGATT
B4: AAAAGUA (DNA:RNA)
RNA: B1 RNA with U25A, G27A, C28A, C29G, U31A
DNA 1: CAATCTGAATTCCGGTCTCCC
DNA 2: TGGTGGCTACGACGGGATT
B5: UGCUGUC (DNA:RNA)
RNA: B1 RNA with A26G, G27C, C28U, C29G, U31C
DNA 1: CAATCTGAATTCCGGTCTCCC
DNA 2: TGGTGGCTACGACGGGATT
B6: UGCAUAA (DNA:RNA)
RNA: B1 RNA with A26G, G27C, C28A, C29U, U30A, U31A
DNA 1: CAATCTGAATTCCGGTCTCCC
DNA 2: TGGTGGCTACGACGGGATT
B7: ACGGAAC (DNA:RNA)
RNA: B1 RNA with U25A, A26C, C28G, C29A, U30A, U31C
DNA 1: CAATCTGAATTCCGGTCTCCC
DNA 2: TGGTGGCTACGACGGGATT
B8: UUCGCAC (DNA:RNA)
RNA: B1 RNA with A26U, G27C, C28G, U30A, U31C
DNA 1: CAATCTGAATTCCGGTCTCCC
DNA 2: TGGTGGCTACGACGGGATT
B9: CUACUGU (DNA:RNA)
RNA: B1 RNA with U25C, A26U, G27A, C29U, U30G
DNA 1: CAATCTGAATTCCGGTCTCCC
DNA 2: TGGTGGCTACGACGGGATT
B10: AUGGGAC (DNA:RNA)
RNA: B1 RNA with U25A, A26U, C28G, C29G, U30A, U31C
DNA 1: CAATCTGAATTCCGGTCTCCC
DNA 2: TGGTGGCTACGACGGGATT
B11: GUUAAGC (DNA:RNA)
RNA: GGGAGACCGGAAUUCAGAUUGUCCGUUAAGCUUAAAUCCCGUCGUAGCCACCA
DNA 1: CAATCTGAATTCCGGTCTCCC
DNA 2: TGGTGGCTACGACGGGATT
B12: GUUUUGA (DNA:RNA)
RNA: B11 RNA with A28U, A29U, C31A
DNA 1: CAATCTGAATTCCGGTCTCCC
DNA 2: TGGTGGCTACGACGGGATT
B13: UAGCGGC (DNA:RNA)
RNA: B1 RNA with C29G, U30G, U31C
DNA 1: CAATCTGAATTCCGGTCTCCC
DNA 2: TGGTGGCTACGACGGGATT
B14: AGCGACU (DNA:RNA)
RNA: B11 RNA with G25A, U26G, U27C, A28G, G30C, C31U
DNA 1: CAATCTGAATTCCGGTCTCCC
DNA 2: TGGTGGCTACGACGGGATT
B15: AGAGUCC (DNA:RNA)
RNA: B11 RNA with G25A, U26G, U27A, A28G, A29U, G30C
DNA 1: CAATCTGAATTCCGGTCTCCC
DNA 2: TGGTGGCTACGACGGGATT
B16: UUAACUA (DNA:RNA)
RNA: B1 RNA with A26U, G27A, C28A, U31A
DNA 1: CAATCTGAATTCCGGTCTCCC
DNA 2: TGGTGGCTACGACGGGATT
B17: UUUUGCU (DNA:RNA)
RNA: B11 RNA with G25U, A28U, A29G, G30C, C31U
DNA 1: CAATCTGAATTCCGGTCTCCC
DNA 2: TGGTGGCTACGACGGGATT
B18: GCGACAA (DNA:RNA)
RNA: B11 RNA with U26C, U27G, A29C, G30A, C31A
DNA 1: CAATCTGAATTCCGGTCTCCC
DNA 2: TGGTGGCTACGACGGGATT
B19: AUCCUAC (DNA:RNA)
RNA: B11 RNA with G25A, U27C, A28C, A29U, G30A
DNA 1: CAATCTGAATTCCGGTCTCCC
DNA 2: TGGTGGCTACGACGGGATT
B20: UACGAAA (DNA:RNA)
RNA: B1 RNA with G27C, C28G, C29A, U30A, U31A
DNA 1: CAATCTGAATTCCGGTCTCCC
DNA 2: TGGTGGCTACGACGGGATT

Positions count from the first letter of the chain named. Some of the results follow.

The target in the assay is T1, RBFOX1 RRM RbFoxmut (Fox-RRM*). The experiment in a line: EMSA; HiTS-Eq, 1 nM pool, 10 min; buffer printed only for the single-RNA assays: 10 mM Tris pH 7.5, 150 mM NaCl, 3.4 mM EDTA, 0.001% NP-40, 30 C. To be noted: tags: His6 N-terminal (pET28a); label: 5' 32P. An outline of the steps:
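Purified RbFox RRM (wild type or mutant) was equilibrated for 10 min in 50 µL with 1 nM of a 5′-radiolabelled pool of RNA with 7 randomized nucleotides, its flanks annealed to DNA oligonucleotides, across increasing protein concentrations. Free RNA was separated by 8% native PAGE, excised, reverse-transcribed, PCR-barcoded and sequenced on an Illumina HiSeq 2500. Relative association constants came from read-count changes of each variant against the control reaction, normalised to the cognate motif.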
As for B1, the binding signal is 0.0765 KA relative to UGCAUGU.
Take B2: the binding signal is 0.0727 KA relative to UGCAUGU.
As for B3, the binding signal was 0.098 KA relative to UGCAUGU.
With B4, the binding signal is 0.147 KA relative to UGCAUGU.
As to B5, the binding signal is 0.331 KA relative to UGCAUGU.
Under B6 stands 0.146 KA relative to UGCAUGU; under B7, 0.0998 KA relative to UGCAUGU; under B8, 0.105 KA relative to UGCAUGU.
B9: the binding signal is 0.11 KA relative to UGCAUGU.
In the case of B10 it was 0.0791 KA relative to UGCAUGU; in that of B11, 0.0938 KA relative to UGCAUGU; in that of B12, 0.103 KA relative to UGCAUGU.
For the molecule B13, the binding signal is 0.086 KA relative to UGCAUGU.
Regarding B14, the binding signal is 0.0943 KA relative to UGCAUGU.
For B15, the binding signal is 0.0833 KA relative to UGCAUGU.
Consider B16, for which the binding signal was 0.0873 KA relative to UGCAUGU.
Regarding B17, the binding signal was 0.111 KA relative to UGCAUGU.
In the case of B18, the binding signal is 0.0662 KA relative to UGCAUGU.
Under B19 stands 0.0748 KA relative to UGCAUGU.
Regarding B20, the binding signal was 0.0838 KA relative to UGCAUGU.
